The record followed here is patent publication US20180362604A1 (SHIRE HUMAN GENETIC THERAPIES, published 2018).

The target of assay [1] is T1, Myostatin (UniProt O14793 267-375).
T1 construct: bought protein; also called GDF-8; MST
T1 sequence (looked up): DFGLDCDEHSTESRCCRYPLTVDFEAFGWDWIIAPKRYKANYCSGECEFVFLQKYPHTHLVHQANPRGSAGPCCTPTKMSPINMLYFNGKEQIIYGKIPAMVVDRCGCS
Nature of the assay: SPR (BIAcore), anti-human Fc capture, myostatin as analyte. In general terms: SPR reads the build-up and loss of mass on a sensor chip optically.

Assay [2] has as its target T2, Activin A (UniProt P08476 311-426).
T2 construct: bought protein
T2 sequence (looked up): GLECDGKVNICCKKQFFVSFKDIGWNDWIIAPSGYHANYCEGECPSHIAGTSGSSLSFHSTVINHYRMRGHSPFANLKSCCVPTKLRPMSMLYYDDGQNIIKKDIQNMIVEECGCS
The assay can be described thus: SPR (BIAcore), anti-human Fc capture, activin A as analyte.

Assay [3] deals with T2, Activin A. The assay can be described thus: cell-based or functional assay.
Assay [4] has as its target T1, Myostatin. The assay can be described thus: cell-based or functional assay.
The target of assay [5] is T1, Myostatin. The assay can be described thus: SPR.
The target in assay [6] is T1, Myostatin. Nature of the assay: SPR. The source holds these as a separate data set.
The next assay has as its target T3, BMP-10 (UniProt O95393 317-424).
T3 construct: bought protein; also called bone morphogenic protein-10
T3 sequence (looked up): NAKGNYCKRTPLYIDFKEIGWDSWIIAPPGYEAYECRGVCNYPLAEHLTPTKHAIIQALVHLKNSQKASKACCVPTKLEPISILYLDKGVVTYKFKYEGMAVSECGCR
Nature of the assay: SPR (BIAcore), anti-human Fc capture, BMP-10 as analyte.

Assay [7] concerns the target T2, Activin A. Nature of the assay: cell-based or functional assay. The source holds these as a separate data set.
Assay [8] concerns the target T1, Myostatin. The assay can be described thus: cell-based or functional assay. The source holds these as a separate data set.
In the next assay the target is T4, BMP-9 (UniProt Q9UK05 320-429).
T4 construct: bought protein; also called bone morphogenic protein-9
T4 sequence (looked up): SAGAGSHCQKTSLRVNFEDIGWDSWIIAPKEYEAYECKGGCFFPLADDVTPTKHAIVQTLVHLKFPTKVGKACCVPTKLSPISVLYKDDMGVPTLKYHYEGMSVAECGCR
The assay can be described thus: SPR (BIAcore), anti-human Fc capture, BMP-9 as analyte.

B1: FS315WT-hFc (Fc fusion)
chain: GNCWLRQAKNGRCQVLYKTELSKEECCSTGRLSTSWTEEDVNDNTLFKWMIFNGGAPNCIPCKETCENVDCGPGKKCRMNKKNKPRCVCAPDCSNITWKGPVCGLDGKTYRNECALLKARCKEQPELEVQYQGRCKKTCRDVFCPGSSTCVVDQTNNAYCVTCNRICPEPASSEQYLCGNDGVTYSSACHLRKATCLLGRSIGLAYEGKCIKAKSCEDIQCTGGKKCLWDFKVGRGRCSLCDELCPDSKSDEPVCASDNATYASECAMKEAACSSGVLLEVKHSGSCNSISEDTEEEEEDEDQDYSFPISSILEW[here human IgG1 Fc without letters]
notes: wild-type FS315 fused to human Fc; comparator protein; also called FS315wt-hFc (comparator protein)
By Kd is commonly meant the concentration at which binding is half-saturated. Turning to B1, the Kd was in the range of 0.006 to 0.01 nM in the assay with Myostatin [1] and 1 to 2 pM with Activin A [2]. Also, in the assay with Activin A [3], the “Activin A IC50, cell-based assay for SMAD pathway (A204 luciferase reporter)” value (from here on “Activin A IC50, cell-based assay”) was 0.7 nM. For the same molecule, the “Myostatin IC50, cell-based assay for SMAD pathway (A204 luciferase reporter)” value with Myostatin [4] was 0.4 nM.

B2: FS315(del75-86)-hFcLALA (Fc fusion)
chain: GNCWLRQAKNGRCQVLYKTELSKEECCSTGRLSTSWTEEDVNDNTLFKWMIFNGGAPNCIPCKETCENVDCGPGCVCAPDCSNITWKGPVCGLDGKTYRNECALLKARCKEQPELEVQYQGRCKKTCRDVFCPGSSTCVVDQTNNAYCVTCNRICPEPASSEQYLCGNDGVTYSSACHLRKATCLLGRSIGLAYEGKCIKAKSCEDIQCTGGKKCLWDFKVGRGRCSLCDELCPDSKSDEPVCASDNATYASECAMKEAACSSGVLLEVKHSGSCNSISEDTEEEEEDEDQDYSFPISSILEW[here human IgG1 Fc with changes without letters]
notes: also called HBS deletion variant
In the case of B2, the Kd with Myostatin [1] and in the assay with Myostatin [6] was 0.0571 nM in each case. Further, in the assay with Myostatin [5], the “fold reduction in binding affinity compared to wild type” value amounted to 3 fold. In addition, the binding result with BMP-10 is recorded as “no binding (tested: 25-0.190 nM)”. Moreover, the “activin inhibition, SMAD2/3 luciferase reporter assay in A204 cells, fold reduction compared to wild type” value with Activin A [7] is approximately 5 fold. The “myostatin inhibition, SMAD2/3 luciferase reporter assay in A204 cells, fold reduction compared to wild type” value with Myostatin [8] was approximately 20 fold.

B3: FS315K(76,81,82)D-hFcLALA (Fc fusion)
chain: GNCWLRQAKNGRCQVLYKTELSKEECCSTGRLSTSWTEEDVNDNTLFKWMIFNGGAPNCIPCKETCENVDCGPGKDCRMNDDNKPRCVCAPDCSNITWKGPVCGLDGKTYRNECALLKARCKEQPELEVQYQGRCKKTCRDVFCPGSSTCVVDQTNNAYCVTCNRICPEPASSEQYLCGNDGVTYSSACHLRKATCLLGRSIGLAYEGKCIKAKSCEDIQCTGGKKCLWDFKVGRGRCSLCDELCPDSKSDEPVCASDNATYASECAMKEAACSSGVLLEVKHSGSCNSISEDTEEEEEDEDQDYSFPISSILEW[here human IgG1 Fc with changes without letters]
For B3, the binding result with BMP-9 and with BMP-10 was “no binding (tested: 25-0.190 nM)” in each case. Besides, binding with Activin A [2] was put at a Kd of 0.76 pM. For the same molecule, the “Activin A IC50, cell-based assay” value with Activin A [3] was found to be 1.1 nM.

B4: FS315K(81,82)D-hFcLALA (Fc fusion)
chain: GNCWLRQAKNGRCQVLYKTELSKEECCSTGRLSTSWTEEDVNDNTLFKWMIFNGGAPNCIPCKETCENVDCGPGKKCRMNDDNKPRCVCAPDCSNITWKGPVCGLDGKTYRNECALLKARCKEQPELEVQYQGRCKKTCRDVFCPGSSTCVVDQTNNAYCVTCNRICPEPASSEQYLCGNDGVTYSSACHLRKATCLLGRSIGLAYEGKCIKAKSCEDIQCTGGKKCLWDFKVGRGRCSLCDELCPDSKSDEPVCASDNATYASECAMKEAACSSGVLLEVKHSGSCNSISEDTEEEEEDEDQDYSFPISSILEW[here human IgG1 Fc with changes without letters]
B4: the binding result with BMP-9 and with BMP-10 was “no binding (tested: 25-0.190 nM)” throughout. For the same molecule, in the assay with Activin A [2], the Kd is 0.47 pM.

B5: FS315K(76,81,82)E-hFcLALA (Fc fusion)
chain: GNCWLRQAKNGRCQVLYKTELSKEECCSTGRLSTSWTEEDVNDNTLFKWMIFNGGAPNCIPCKETCENVDCGPGKECRMNEENKPRCVCAPDCSNITWKGPVCGLDGKTYRNECALLKARCKEQPELEVQYQGRCKKTCRDVFCPGSSTCVVDQTNNAYCVTCNRICPEPASSEQYLCGNDGVTYSSACHLRKATCLLGRSIGLAYEGKCIKAKSCEDIQCTGGKKCLWDFKVGRGRCSLCDELCPDSKSDEPVCASDNATYASECAMKEAACSSGVLLEVKHSGSCNSISEDTEEEEEDEDQDYSFPISSILEW[here human IgG1 Fc with changes without letters]
notes: also called EEE-FS-hFc; FS-EEE-hFc
Regarding B5, the binding result with BMP-9 and with BMP-10 was “no binding (tested: 25-0.190 nM)” in each case. This molecule returned a Kd with Activin A [2] of 1 to 2 pM. Moreover, the “Activin A IC50, cell-based assay” value with Activin A [3] was determined as 0.7 nM.
